What all share (test): Primary Screen for Target Class Profiling of Small Molecule Inhibitors of Methyltransferases
Assay [1] deals with Glycine N-methyltransferase (Homo sapiens) (UniProt Q14749). The settings on record: purified enzyme, MTase-Glo SAH luminescence; measured here: GNMT inhibition; at 40 µM; stronger effect = lower value. The method in brief:
(§1)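 Each enzyme was assayed with SAM and its substrate. SAH formation detected by MTase-Glo luminescence; single-point 40 uM screen[…].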

For assay [2], the target named is Histamine N-methyltransferase (Homo sapiens) (UniProt P50135). Conditions: purified enzyme, MTase-Glo SAH luminescence; measured here: HNMT inhibition; at 40 µM; stronger effect = lower value. The method in brief: as §1
In assay [3] the target is Guanidinoacetate N-methyltransferase (Homo sapiens) (UniProt Q14353). The settings on record: purified enzyme, MTase-Glo SAH luminescence; measured here: GAMT inhibition; at 40 µM; stronger effect = lower value. Summed up: as §1
Assay [4] addresses Nicotinamide N-methyltransferase (Homo sapiens) (UniProt P40261). The settings on record: purified enzyme, MTase-Glo SAH luminescence; measured here: NNMT inhibition; at 40 µM; stronger effect = lower value. The method in brief:
as §1

Assay [5] addresses Phenylethanolamine N-methyltransferase (Homo sapiens) (UniProt P11086). Conditions: purified enzyme, MTase-Glo SAH luminescence; measured here: PNMT inhibition; at 40 µM; stronger effect = lower value. The method in brief: as §1

The structures appear in SMILES notation. Some of the results follow. Further columns of the screen follow, without active or inactive calls.
On the % scale 0 is the no-effect control and ±100 the full control effect.

Consider `C=C[C@H]1CN2CCC1C[C@H]2[C@H](O)c1ccnc2ccccc12` (stereo partly drawn), for which the activity change, negative = inhibition in assay [1] is 6.08%; in assay [2], -4.96%.
For the molecule `CCOC(=O)c1cccc(NC(=O)N2Cc3ccccc3-n3cccc3C2c2ccccc2C)c1` (stereo not drawn), the activity change, negative = inhibition worked out at 6.63% in assay [1]; 0% in assay [3]; 1.46% in assay [2]; 4.05% in assay [4]; 2.02% in assay [5].
As for `O=P1(N(CCCl)CCCl)NCCCO1` (stereo not drawn), the activity change, negative = inhibition is -11.4% in assay [1]; 4.12% in assay [3]; 1.4% in assay [2]; -3.78% in assay [4]; 2.98% in assay [5].
Turning to `O=C(O)Cc1cnc[nH]1`, the activity change, negative = inhibition in assay [1] is 0.319%; in assay [3], 8.33%; in assay [2] it was 1.51%; in assay [4], 1.11%; in assay [5] it was 6.25%.
As for `CC(C)C1c2cccn2-c2ccccc2CN1C(=O)Nc1cccc(Br)c1` (stereo not drawn), the activity change, negative = inhibition in assay [1] is 1.41%; in assay [3], 2.06%; in assay [2], 9.64%; in assay [4], 6.6%; in assay [5] it was 7.59%.
As to `CN1C2CCC1CC(OC(=O)c1cc(Cl)cc(Cl)c1)C2` (stereo not drawn), the activity change, negative = inhibition in assay [1] is -0.816%; in assay [3], 8.66%; in assay [2] it was 4.79%; in assay [4] it was -6.69%; in assay [5], 1.79%.
`COc1ccc(C2c3cccn3-c3ccccc3CN2C(=O)Nc2ccccc2)cc1OC` (stereo not drawn): the activity change, negative = inhibition was found to be 8.55% in assay [1]; 0.371% in assay [3]; 6.09% in assay [2]; 1% in assay [4]; 7.22% in assay [5].
As for `Cc1cccc(C2c3cccn3-c3ccccc3CN2C(=O)Nc2cc(Cl)ccc2C)c1` (stereo not drawn), the activity change, negative = inhibition in assay [1] was 3.16%; in assay [3] it was 0.553%; in assay [2], -0.117%; in assay [4], -5.33%; in assay [5], -1.33%.
The corresponding values for `CCOC(=O)Cc1ccc(NC(=O)N2Cc3ccccc3-n3cccc3C2c2ccc(OC)cc2)cc1` (stereo not drawn) are 4.58%, 0.052%, -2.42%, -4.29% and 1.17%.
The corresponding values for `CCC1c2cccn2-c2ccccc2CN1C(=O)Nc1ccc(OC)cc1OC` (stereo not drawn) are -5.69%, 1.71%, -23.9%, -12.9% and -4.16%.
For the molecule `N#Cc1cncc(N2CC3CCC(C2)N3CC(F)(F)F)c1`, the activity change, negative = inhibition in assay [1] is -4.32%; in assay [3] it was -2.17%; in assay [2] it was -1.06%; in assay [4], -6.88%; in assay [5], -3.14%.
For `CCOc1ccc(C2c3cccn3-c3ccccc3CN2C(=O)Nc2ccccc2OCC)cc1` (stereo not drawn) the same measures were -2.54%, 0%, 5.21%, 2.29% and 0.342%.
`Cc1cccc(NC(=O)N2Cc3ccccc3-n3cccc3C2c2ccccc2Cl)c1C` (stereo not drawn): the activity change, negative = inhibition in assay [1] was 7.01%; in assay [3] it was 1.05%; in assay [2], 0.195%; in assay [4], -5.37%; in assay [5] it was 0.001%.
For `COc1ccc(-c2cc([C@H]3CN4CC[C@H]3C[C@@H]4COC(=O)Nc3ccccc3)n(C)n2)cc1` the same measures were -19.7%, -22.6%, -31.2%, -21.2% and -13.7%.
`N[C@H]1[C@H](O)[C@@H](N2CCCCC2)[C@@H]2OC[C@H]1O2`: the activity change, negative = inhibition in assay [1] is -1.36%; in assay [3] it was -6.97%; in assay [2] it was -1.01%; in assay [4], -9.25%; in assay [5] it was 0.172%.
Consider `COc1cccc(CNC(=O)N2Cc3ccccc3-n3cccc3C2c2cc(F)cc(F)c2)c1` (stereo not drawn), for which the activity change, negative = inhibition in assay [1] was 6.41%; in assay [3], 0%; in assay [2] it was -0.454%; in assay [4] it was -1.23%; in assay [5] it was 5.97%.
On to `O=C(Nc1cccc(Br)c1)N1Cc2ccccc2-n2cccc2C1c1ccccc1` (stereo not drawn), for which the activity change, negative = inhibition was 7.6% in assay [1]; 0.719% in assay [3]; 4.95% in assay [2]; 0.917% in assay [4]; -1.41% in assay [5].
Consider `O=C(O)[C@@H]1CCN1`, for which the activity change, negative = inhibition in assay [1] is 2.72%; in assay [3], 9.51%; in assay [2], 7.56%; in assay [4], -5.18%; in assay [5] it was 0.735%.
Turning to `CCOC(=O)c1ccccc1NC(=O)N1Cc2ccccc2-n2cccc2C1C` (stereo not drawn), the activity change, negative = inhibition in assay [1] turned out to be 8.69%; in assay [3], 1.13%; in assay [2], 9.03%; in assay [4] it was 6.07%; in assay [5], 8.29%.
The corresponding values for `CCc1ccc(C2c3cccn3-c3ccccc3CN2C(=O)NC2CCCC2)cc1` (stereo not drawn) are 7.06%, 2.12%, 3.37%, 0.215% and 4.87%.
For `Cc1cccc(NC(=O)N2Cc3ccccc3-n3cccc3C2C(C)C)c1C` (stereo not drawn) the same measures were -1.24%, 0%, 5.66%, 2.62% and 3.83%.
The corresponding values for `CO[C@@H]1[C@H](O)[C@@H](O[C@@H]2C[C@H]3CC[C@@H]4C(CC[C@]5(C)[C@@H](C6=CC(=O)OC6)CC[C@]45O)[C@@]3(C)[C@H](O)C2)O[C@H](C)[C@@H]1O` (stereo partly drawn) are -2.08%, -2.7%, 5.17%, -12.8% and -6.88%.
In the case of `CCCN1CCO[C@@H]2c3cc(O)ccc3OC[C@H]21`, the activity change, negative = inhibition in assay [1] is -8.11%; in assay [3], 5.4%; in assay [2] it was 1.19%; in assay [4], -4.12%; in assay [5], 7.02%.
On to `CCC1c2cccn2-c2ccccc2CN1C(=O)Nc1ccc(OC)c(OC)c1` (stereo not drawn), for which the activity change, negative = inhibition in assay [1] is 2.37%; in assay [3] it was 0.744%; in assay [2] it was -2.75%; in assay [4], 0.059%; in assay [5], 5.63%.
For the molecule `Cc1ccc(-n2nccn2)c(C(=O)N2CCN(c3nc4cc(Cl)ccc4o3)CC[C@H]2C)c1`, the activity change, negative = inhibition is -0.293% in assay [3], -24.2% in assay [4] and -2.33% in assay [5].
Turning to `COc1ccc2c(c1OC)C(=O)O[C@H]2[C@@H]1c2cc3c(cc2CCN1C)OCO3`, the activity change, negative = inhibition was -1.3% in assay [1]; 8.58% in assay [3]; 3.53% in assay [2]; -6.87% in assay [4]; 4.73% in assay [5].
For `CN(C(=O)Cc1ccccc1)[C@H](CN1CCCC1)c1ccccc1`, the figures for the activity change, negative = inhibition in assay [3], in assay [4] and in assay [5] were -7.96%, -20.2% and -3.08%, respectively.
For the molecule `CC1c2cccn2-c2ccccc2CN1C(=O)Nc1ccccc1Br` (stereo not drawn), the activity change, negative = inhibition in assay [1] was 3.43%; in assay [3], 2.96%; in assay [2] it was 5.21%; in assay [4], 0.281%; in assay [5], 9.18%.
The corresponding values for `COc1ccc(C2c3cccn3-c3ccccc3CN2C(=O)NCc2ccccc2)cc1OC` (stereo not drawn) are 6.62%, 0.798%, 0.27%, -1.1% and 4.47%.
Turning to `O=C(Nc1ccccc1Cl)N1Cc2ccccc2-n2cccc2C1c1ccccc1` (stereo not drawn), the activity change, negative = inhibition was 5.18% in assay [1]; 4.35% in assay [3]; -2.61% in assay [2]; -2.84% in assay [4]; 2.52% in assay [5].
With `O=C(Nc1ccccc1)N1Cc2ccccc2-n2cccc2C1c1ccccc1` (stereo not drawn), the activity change, negative = inhibition in assay [1] is 6.84%; in assay [3] it was 0.564%; in assay [2], -2.41%; in assay [4], -5.08%; in assay [5], -0.876%.
Turning to `CN(C)c1ccc(C2c3cccn3-c3ccccc3CN2C(=O)NCCc2ccccc2)cc1` (stereo not drawn), the activity change, negative = inhibition was 7.3% in assay [1]; 0.741% in assay [3]; -2.21% in assay [2]; 2.57% in assay [4]; 6.64% in assay [5].
For the molecule `COC(=O)CCNC(=O)N1Cc2ccccc2-n2cccc2C1c1ccc(SC)cc1` (stereo not drawn), the activity change, negative = inhibition was -2.08% in assay [1]; 0% in assay [3]; 2.88% in assay [2]; -9.55% in assay [4]; 3.59% in assay [5].
In the case of `CSc1ccc(C2c3cccn3-c3ccccc3CN2C(=O)Nc2cccc(C(F)(F)F)c2)cc1` (stereo not drawn), the activity change, negative = inhibition was 4.06% in assay [1]; 0% in assay [3]; 8.02% in assay [2]; 11.2% in assay [4]; 9.84% in assay [5].
Regarding `CCCNC(=O)N1Cc2ccccc2-n2cccc2C1c1ccc(Cl)cc1` (stereo not drawn), the activity change, negative = inhibition in assay [1] is 1.84%; in assay [3], 0%; in assay [2] it was 0.961%; in assay [4], -11.2%; in assay [5], 5.62%.
Take `CCOCCCNC(=O)N1Cc2ccccc2-n2cccc2C1c1ccc(CC)cc1` (stereo not drawn): the activity change, negative = inhibition was 3.17% in assay [1]; 5.92% in assay [3]; -2.37% in assay [2]; -8.75% in assay [4]; 2.14% in assay [5].
In the case of `c1ccc2cc(CC3=NCCN3)ccc2c1`, the activity change, negative = inhibition in assay [1] is 2.69%; in assay [3], 13.4%; in assay [2] it was -19.6%; in assay [4], -0.018%; in assay [5], 5.49%.
For `Cc1cccc(C2c3cccn3-c3ccccc3CN2C(=O)Nc2cccc(Br)c2)c1` (stereo not drawn), the activity change, negative = inhibition in assay [1] came out at 10.4%; in assay [3], 0%; in assay [2] it was 7.92%; in assay [4] it was 7.47%; in assay [5], 5.8%.
With `CCC1CN2CCC3(C(=O)Nc4cccc(O)c43)C2CC1/C(=C/OC)C(=O)OC` (stereo not drawn), the activity change, negative = inhibition in assay [1] is -1.53%; in assay [3] it was -5.01%; in assay [2] it was 3.72%; in assay [4] it was -15.1%; in assay [5] it was -12.6%.
Regarding `CC(C)(C)[C@]1(O)C[C@@H]2OC(=O)C[C@@]23C(=O)O[C@@H]2OC(=O)[C@@H](O)[C@]213`, the activity change, negative = inhibition in assay [1] was 1.18%; in assay [3], 2.16%; in assay [2], 6.83%; in assay [4], -8.32%; in assay [5], -2.5%.
Take `CC[C@H]1C[C@@H]2CC[C@@H](O2)[C@@H](C)C(=O)O[C@H](CC)C[C@H]2CC[C@H](O2)[C@H](C)C(=O)O[C@@H](C)C[C@@H]2CC[C@@H](O2)[C@@H](C)C(=O)O[C@H](CC)C[C@H]2CC[C@H](O2)[C@H](C)C(=O)O1`: the activity change, negative = inhibition in assay [1] was -1.52%; in assay [3] it was -4.76%; in assay [2], 8.05%; in assay [4] it was -13.5%; in assay [5] it was -1.61%.
